Results reported in PubChem BioAssay AID1508623 (National Center for Advancing Translational Sciences (NCATS), 2021).
The campaign covered roughly 48,000 compounds. About 450 (0.94%) were called active. Inconclusive results (about 19%) are left out. The call rests on the fitted dose curve; in most records, active means well fitted inhibition curve with a large enough effect; inconclusive means small, poorly fitted or top-dose-only effect; inactive means no such curve, though single readings can be large or run the other way. Some of the results follow.

Test: Primary qHTS for Identification of Small Molecule Inhibitors of Huntingtin Promoter Activity; further: nearly all actives have a fitted effect of over 50% in size
Conditions: HEK293 HTT promoter firefly luciferase reporter (activity 0% = vehicle and -100% = no light), 24 h; series mostly up to 57.5 µM; activity change, negative = inhibition: at the top concentration
Outline: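 Quantitative HTS used concentration series of up to 57.5 uM final on HEK293 luciferase reporter cells, 24 h at 37 degrees C. Readout was Dual-Glo firefly luminescence.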

Activity change, negative = inhibition, inactive:
CCCn1c2ccccc2c2cnn(CC(=O)N3CCCC(C)C3)c(=O)c21 (stereo not given) -18.3%
CCc1ccccc1-n1c(C)nc2cc(C(=O)NCCc3ccc(Cl)cc3)ccc21 -24.2%
Cc1ccc(CNC(=O)C2CCN(S(=O)(=O)c3cn(C)cn3)CC2)cc1 -19.9%
O=C(NCCCc1nc2ccccc2n1Cc1ccc(Cl)cc1)C1CCCCC1 -27.9%
Cc1ccc(-n2ncc(C(=O)NCCN3CCCC3)c2C2CCN(C(=O)OC(C)(C)C)CC2)cc1C -9.43%
COCCCNC(=O)CCc1c(C)nc2nc(-c3cc(OC)cc(OC)c3)nn2c1C -4.86%
CC(C)N(Cc1ccccc1)S(=O)(=O)c1ccc(-c2cc(C(F)(F)F)on2)s1 -18.5%
CC(C)OCCCNC(=O)CN1C(=O)COc2ccc(S(=O)(=O)N3CCCCCC3)cc21 -2.68%
COCc1c(C(C)C)nc(C(C)C)c(/C=C/[C@@H](O)C[C@@H](O)CC(=O)O)c1-c1ccc(F)cc1 10.9%
CCC(Oc1ccccc1)C(=O)Nc1cc(-c2cccc(C)c2)nn1-c1ccccc1 (stereo not given) -6.35%
COc1ccc(-n2c(C)c(C(C)=O)c3cc(OC(=O)COc4ccccc4)ccc32)cc1 -18.8%
Cc1cc(-c2ccc(C)c(S(=O)(=O)NCc3cccc(Br)c3)c2)on1 -24.1%
CCCS(=O)(=O)N1CC(=O)N(c2cccc(Cl)c2C)C(C)(C(=O)NC2CCCC2)C1 (stereo not given) -0.931%
Cc1cc(C)cc(OCC(=O)N(Cc2cccs2)c2ccc(Cl)cc2)c1 -14.5%
CCCCCn1c(CCNC(=O)c2ccc(F)cc2)nc2ccccc21 -14%
Fc1ccc(-c2nn(-c3ccccc3Cl)c3c2cnc2ccccc23)cc1 -32.3%
COc1ccc(-n2nc(C(=O)N3CCN(c4cccc(C)c4C)CC3)c3c4ccccc4n(C)c3c2=O)cc1Cl -10.7%
Cc1ccc(CNC(=O)Cc2c(C)c3c(cc(C)c4c(C)coc43)oc2=O)cc1 7.8%
COc1cccc(CNC(=O)Cn2ncn3nc(-c4cccs4)cc3c2=O)c1OC -14.5%
O=C(c1ccc2c(c1)N(Cc1ccc(F)cc1)C(=O)c1ccccc1S2(=O)=O)N1CCCC1 -11.6%
CCC(=O)N1CCCc2cc(S(=O)(=O)N3CCC(C(=O)NC4CCCCC4)CC3)ccc21 -12.9%
COc1ccccc1Cn1c(CNS(=O)(=O)c2ccc(C(C)C)cc2)nc2cccnc21 -11.8%
Fc1ccccc1Cc1cn2cc(-c3ccc(Cl)cc3)nc2s1 3.1%
COc1ccccc1NC(=O)c1oc2ccccc2c1NC(=O)c1cccc(OC)c1OC -25.3%
Cc1ccccc1Nc1c(-c2cc(Br)ccc2F)nc2ccccn12 -0.687%
CCOC(=O)C1CCC(CN(Cc2ccccc2)S(=O)(=O)c2ccc(Br)cc2)CC1 (stereo not given) -14.3%
COc1cc(NC(=O)CCS(=O)(=O)c2ccc3c(c2)CC(=O)N3C)cc(OC)c1OC -5%
CCOc1ccc(-c2cc(C(=O)Oc3ccc(C#N)cc3)no2)cc1 22.9%
COc1ccc(/C=C/c2nc(C#N)c(NCc3ccc(F)cc3)o2)cc1OC -12.2%
COc1ccc(N2CCN(CCCNC(=O)c3cc(Nc4ccc(OC)cc4OC)nc4ccccc34)CC2)cc1 -19%
O=C(CCS(=O)(=O)c1ccccc1)N(Cc1cccnc1)c1nc2ccc(Cl)cc2s1 0.0578%
CCCN1Cc2cccc(C(=O)Nc3ccc(C(C)=O)cc3)c2C1=O -22.6%
COc1cccc(C(=O)c2c(N)c(-c3nc(-c4ccccc4)cs3)c3ccccn23)c1 -1.14%
Cc1cccc(-n2c(=O)c3c(c4cc(C)ccc4n3C)n(CC(=O)N3CCCC3)c2=O)c1 -21.7%
O=C(CN1C(=O)COc2ccccc21)NCCc1ccc(Cl)cc1 -12%
Cc1ccc(CNC(=O)c2ccc(NC(=O)N3CCSc4ncccc43)cc2)cc1 -30.4%
CCc1ccc(-n2c(=O)c3c4c(sc3n(CC(=O)N3CCCCC3CC)c2=O)CCC4)cc1 (stereo not given) -15.7%
Cc1ccc(NC(=O)Cn2c(=O)n(Cc3nc(C)no3)c(=O)c3ccccc32)c(Cl)c1 0.653%
Cc1c(CNC2CCCCC2)c(C(=O)O)c(C)n1Cc1cccc(Cl)c1 -10.6%
CCOc1ccccc1NC(=O)c1nc(SC(C)C)ncc1Cl -25.2%
CCc1ccc(NC(=O)CN2C(=O)C(c3ccc(Cl)cc3)=NC23CCCCC3)cc1 -29.1%
Cc1c(C(=O)Nc2cccc(Cl)c2)sc2nc3n(c(=O)c12)N=C(c1cccc(Br)c1)CS3 -15.1%
O=c1c2sc3ccccc3c2n(Cc2cccc(F)c2)c(=O)n1Cc1ccccc1 -12.1%
CCOC(=O)Cn1c(=O)n(CC2CCCO2)c2nc(-c3ccccc3OC)nc(C(N)=O)c21 (stereo not given) 1.85%
Cc1ccc2c(c1Br)C(O)(CC(=O)c1ccc(F)cc1)C(=O)N2 (stereo not given) -9%
Cc1cccc2sc(N(Cc3cccnc3)C(=O)CCc3ccccc3)nc12 -24.9%
CCOc1ccccc1C(=O)N(Cc1ccco1)Cc1ccco1 -8.21%
Cc1c(Cl)cccc1NC(=O)CC1Oc2ccccc2NC1=O (stereo not given) -7.47%
COc1ccccc1CNC(=O)C1CCCN(S(=O)(=O)c2ccc3c(c2)oc(=O)n3C)C1 (stereo not given) -24.5%
COc1ccc(-c2cc(C(=O)Nc3c(C(=O)c4ccc(C)cc4)oc4ccccc34)no2)cc1 7.13%
O=C(c1ccc2c(c1)N(Cc1ccccc1F)C(=O)c1ccccc1S2(=O)=O)N1CCC(Cc2ccccc2)CC1 -12.8%
CCC(CC)C(=O)OCc1cc(=O)n2nc(C3CC3)sc2n1 -15.6%
CC1=C(c2ccc(Cl)cc2)S(=O)(=O)NC1=NCCCN1CCN(c2cc(C)ccc2C)CC1 -20.2%
O=C(CCCn1c(=O)c2cccn2c2ccccc21)Nc1cc(C(F)(F)F)ccc1Cl -1.03%
COc1ccc(Cn2c(CCC(=O)Nc3cc(OC)c(OC)c(OC)c3)nc3cccnc32)cc1 -21.2%
CCOc1ccccc1NC(=O)CN1C(=O)COc2ccc(S(=O)(=O)N3CCOCC3)cc21 -1.5%
Cc1cc(C)n(C(C)CC(=O)Nc2cccc(C(F)(F)F)c2)n1 (stereo not given) -9.62%
O=C(Nc1cc(-c2nc3ccccc3o2)ccc1Cl)c1sc2c([N+](=O)[O-])cccc2c1Cl 4.05%
CC(C)(C)OC(=O)N1CCC(c2c(C(=O)NCc3cccc(Cl)c3)cnn2-c2ccc(F)cc2)CC1 -17.5%
COc1cc(/C=C(\C#N)C(=O)NCC2CCCO2)ccc1O (stereo not given) 10.7%
CCc1ccccc1NC(=O)CSc1nc(-c2cccc(Cl)c2)nc2c1Cc1c(CO)cnc(C)c1O2 -2.58%
Cc1ccccc1C(=O)Nc1nnc(S(=O)(=O)N(C)Cc2ccccc2)s1 -26.3%
COc1ccc(-n2c(-c3ccc(C)cc3)cc3c2CC(C)(C)CC3=O)cc1Cl 4.27%
CC1CCN(C(=O)Cn2c(=O)n(CC3CCC(C(=O)NC(C)C)CC3)c(=O)c3sccc32)CC1 (stereo not given) -4.24%
O=C(NCCCN1CCCCC1)c1sc2ncccc2c1-n1cccc1 18%
CC(C)c1ccc(Cn2c(COc3ccccc3)nc3ccccc32)cc1 1.49%
COc1ccc(S(=O)(=O)NCC(c2ccco2)S(=O)(=O)c2ccc(C)cc2)cc1F (stereo not given) -23.4%
CCn1nc(C)c2c(-c3ccccc3)cc(=O)n(C(C)C(=O)NCCC(C)C)c21 (stereo not given) 0%
CC(=O)Nc1ccc(NC(=O)CCc2nc3cccnc3n2Cc2cccs2)cc1 -17%
Cc1ccc(C(=O)Nc2ccc3c(c2)n(C)c(=O)c(=O)n3C)cc1 6.56%
Cc1ccc(NC(=O)Cn2nc(C(=O)Nc3ccc(C)cc3)ccc2=O)cc1 -13.1%
Cc1ccc(NC(=O)Cn2c(=O)n(Cc3nc(-c4ccccc4)no3)c(=O)c3cc4c(cc32)OCO4)cc1F 3.73%
CCOc1ccc(CCNC(=O)C2CCN(C(=O)N3CC(CC)Oc4ccccc43)CC2)cc1 (stereo not given) 5.84%
CCCCN(CC)CCCNC(=O)CS(=O)(=O)Cc1nc(-c2ccc(C)cc2)oc1C -12.1%
CCCOc1ccc(C(=O)Nc2ccc3oc(-c4ccncc4)nc3c2)cc1 -10.1%
O=C(Nc1nnc(N2CCCCCC2)s1)Nc1cc(F)ccc1F 0.514%
CCOCCCN(Cc1ccco1)S(=O)(=O)c1cc2c(cc1Cl)NC(=O)CO2 -7.4%
Cn1nnc2c(N3CCN(c4cccc(Cl)c4)CC3)ncnc21 -18.3%
COCCCNC(=O)c1c(NC(=O)Cc2coc3c(C)c(C)ccc23)sc2c1CCCC2 -20.2%
COc1cccc(CNC(=O)CCS(=O)(=O)c2ccc3c(c2)oc(=O)n3C)c1 53.6% [at 11.5 µM]
CCC(Sc1nnc2c(n1)[nH]c1ccccc12)C(=O)Nc1nnc(C(C)C)s1 (stereo not given) -8.8%
CCCCOC(=O)c1c(N)n(-c2ccc(OC)cc2OC)c2nc3ccccc3nc12 -2.71%
Cc1ccc(C(=O)c2cc(O)c(O)c([N+](=O)[O-])c2)cc1
CCOc1ccc(C(=O)NCc2ccc3c(c2)CCN3C(=O)c2ccc(Cl)cc2)cc1 -1.24%
O=C(NC1CC(=O)N(c2cccc(F)c2)C1)c1cccs1 (stereo not given) -1.55%
Cc1cccc(-n2ncc(C(=O)N3CCOCC3)c2C2CCN(C(=O)OC(C)(C)C)CC2)c1 3.78%
CC(C)N(C(=O)Cn1cc(SCC(=O)Nc2ccccc2F)c2ccccc21)C(C)C -29.8%
CC(C)C(=O)Nc1ccc2nc(SCC(=O)N3CCCC3)sc2c1 21.4%
CCCN(C(=O)c1cc2c(=O)oc3ccccc3c2s1)c1ccc(CC)cc1 -13.2%
CCc1ccc(OCC(=O)NC(Cc2c[nH]c3ccccc23)C(=O)O)cc1 (stereo not given) -10.6%
Cc1c(Cl)cccc1NC(=O)N1CCN(C(=O)c2nsc3ccccc23)CC1 -21.3%
Cc1ccccc1Nc1cc(C(=O)NCCCN2CCN(c3cccc(Cl)c3)CC2)c2ccccc2n1 -18.2%
CCc1ccc(NC(=O)c2ccc(CN3CC(=O)N4CCCCC4C3=O)cc2)cc1 (stereo not given) -29.5%
Cc1ccc(C(C)C)c(OCCSc2nc(-c3ccccc3F)nc3cc(=O)[nH]n23)c1 -4.23%
COc1cccc(-n2c(=O)c3c(C)c(C)sc3n(CC(=O)NCCc3ccc(OC)c(OC)c3)c2=O)c1 -2.44%
